Data from the supplement of paper PMC3724861.
The list shows a part of the results.

Each sequence was assayed on T1, Caupolican (Caup) homeodomain DNA-binding domain (assay: PBM E-score (8-mer, recovered from the published 9-mer minima) (E-score (dimensionless, -0.5 to 0.5)); Drosophila protein; higher = stronger relative binding preference, active = 0.31 or more).
T1 sequence: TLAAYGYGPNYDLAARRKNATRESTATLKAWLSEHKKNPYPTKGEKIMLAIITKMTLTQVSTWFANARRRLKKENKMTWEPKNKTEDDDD
Procedure: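 Protein binding microarray (PBM): in vitro transcribed/translated Caupolican (Caup) homeodomain DNA-binding domain (residues 214-303) applied at 100 nM to a universal 8-mer PBM array (Agilent AMADID 015681). The 8-mer enrichment score (E-score, range -0.5 to 0.5) was computed, and each 9-mer score is the minimum E-score of its two constituent 8-mers. The E-score is the same for a 9-mer and its reverse complement; 0.31 is the stated binding threshold.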

Row | Sequence | PBM E-score
1 | GGGTTGAC | inactive: -0.0775
2 | CCCTCACG | inactive: -0.194
3 | AATCGTGG | inactive: 0.0224
4 | AATTTTTG | inactive: 0.122
5 | TCCGGGAA | inactive: -0.045
6 | CAGAGATC | inactive: -0.0422
7 | TAGGCACA | inactive: -0.0197
8 | GTGATTTA | inactive: 0.129
9 | CCCTTGTA | active: 0.337
10 | CCTTTGTC | inactive: 0.0525
11 | ATCATCGC | inactive: -0.0341
12 | CTACAGAA | inactive: 0.0955
13 | ATGCCCTC | inactive: -0.0602
14 | GAGCTCGA | inactive: -0.11
15 | CTCCGAAG | inactive: -0.206
16 | AACGGCAC | inactive: -0.0386
17 | CAGAAATA | inactive: 0.113
18 | CACAGTCC | inactive: -0.0682
19 | AATTCAGC | inactive: -0.0584
20 | ATCCTGGC | inactive: -0.137
21 | AGCACGAC | inactive: 0.00841
22 | AATTTTGT | inactive: 0.166
23 | GAAAGGGA | inactive: -0.224

Row | Sequence | PBM E-score
24 | GCACTAAC | inactive: -0.0452
25 | AGCGGCTG | inactive: -0.181
26 | GAACTCAA | inactive: -0.027
27 | CTGTGCTC | inactive: -0.0136
28 | ATGGTGCC | inactive: -0.135
29 | AGCAGGGG | inactive: -0.213
30 | CGGCAGAC | inactive: -0.256
31 | AGCGGTTG | inactive: 0.0606
32 | ACCAACGG | inactive: 0.0018
33 | GCACCCGA | inactive: -0.242
34 | AACGTGCT | inactive: 0.0642
35 | AAATAATA | inactive: 0.171
36 | AGACTTAT | inactive: 0.033
37 | CAGTTATG | inactive: -0.0088
38 | AGGCGTCG | inactive: -0.157
39 | CCCCGCCA | inactive: -0.171
40 | AGTATGCG | inactive: -0.013
41 | AACCTTAG | inactive: -0.0445
42 | GGACTTTA | inactive: -0.0365
43 | TGTGCTAA | inactive: 0.0338
44 | AACTCTCG | inactive: -0.0385
45 | TCGTGAAA | inactive: 0.00205
46 | TAAATACA | inactive: 0.302

Row | Sequence | PBM E-score
47 | GTGACAAA | inactive: 0.14
48 | GGACCCGA | inactive: -0.186
49 | ATGGTGGG | inactive: -0.195
50 | CGCGCAGA | inactive: -0.107
51 | AGGACATC | inactive: 0.233
52 | CAGGCGAG | inactive: -0.158
53 | TACTTACA | inactive: 0.296
54 | TAATGAAA | inactive: 0.0832
55 | GCGGCATA | inactive: -0.105
56 | AACTCCTC | inactive: -0.00975
57 | ATGGAGCA | ≥ 0.00184
58 | GCCCTACC | inactive: -0.141
59 | CCGCCGTC | inactive: -0.23
60 | GCCTACCC | inactive: -0.197
61 | ATCGGAAA | inactive: 0.0807
62 | GTTCAAGA | inactive: 0.0328
63 | GGCTACAA | inactive: 0.081
64 | ACGAATGA | inactive: 0.0985
65 | CACACTAG | inactive: -0.0517
66 | ACGACGTG | inactive: 0.198
67 | TGACAGCA | inactive: 0.185
68 | CGACTTGA | inactive: -0.0344
69 | CTAGCCTC | inactive: -0.119

Row | Sequence | PBM E-score
70 | GAATTGAA | inactive: 0.062
71 | ACCAGTGA | inactive: 0.0897
72 | CAGCGGCA | inactive: -0.0898
73 | AAGTCCAC | inactive: -0.034
74 | GCGTATCA | inactive: 0.0565
75 | ACTGAGCG | inactive: -0.118
76 | GGCGTGAA | inactive: -0.0937
77 | CCACTGTA | inactive: 0.0682
78 | AATCGGAC | inactive: -0.00281
79 | GCTCGAGC | inactive: -0.0243
80 | AATAACTG | inactive: 0.122
81 | GACAAGGC | inactive: 0.205
82 | ACGGGAAA | inactive: -0.0251
83 | ACAGGCTG | inactive: 0.0472
84 | GAATTTAC | inactive: 0.121
85 | ACAATGAC | inactive: 0.225
86 | CGCCTGAA | inactive: -0.0974
87 | AGGGGGTG | inactive: -0.271
88 | ATAGGTCA | inactive: 0.11
89 | ACATACGT | inactive: 0.206
90 | CACACCCC | inactive: -0.109
91 | CAGACTGA | inactive: -0.031
92 | AGCAGACT | inactive: 0.0454

Row | Sequence | PBM E-score
93 | ACCCGGCG | inactive: -0.147
94 | TATATACA | active: 0.355
95 | CAAGGCAA | inactive: 0.0274
96 | GGTACGTA | inactive: 0.0661
97 | ACCCAAAA | inactive: -0.135
98 | CGTGCGAA | inactive: -0.0655
99 | GCCTTCGC | inactive: -0.196
100 | AGGGCGAT | inactive: -0.0688
101 | CCATATCC | inactive: -0.0382
102 | AACATAGA | inactive: 0.232
103 | CATGTGAC | inactive: 0.219
104 | AACTTCTT | inactive: 0.0676
105 | ACCGCAGG | inactive: -0.203
106 | TAAACGAA | inactive: 0.0371
107 | AGATGACC | inactive: -0.0558
108 | CTTAACCA | inactive: 0.111
109 | ATGAAGGC | inactive: -0.101
110 | CGCAAGCA | inactive: -0.0904
111 | CGCCCTCA | inactive: -0.158
112 | ACATGTAT | active: 0.469
